Hit rate of the full screen: of about 420,000 compounds, about 50,000 (12%) were called active. This list was built around the results that the source calls inconclusive (neither active nor inactive); the mix of calls is not that of the screen. Calls follow the shape of the dose curve; as a rule, active = well fitted inhibition curve with a large enough effect; inconclusive = small, poorly fitted or top-dose-only effect; inactive = flat fitted curve, though single readings scatter. Potencies of inconclusive entries are left out as doubtful fits.
Assay: qHTS for Inhibitors of human tyrosyl-DNA phosphodiesterase 1 (TDP1): qHTS in cells in presence of CPT; also: nearly all actives have a fitted effect of over 55% in size
Details: chicken DT40 Tdp1-/-;hTDP1 cells + 20 nM CPT, ATP luminescence, 48 h; activity change, negative = growth inhibition: at 46.2 µM (top of the series) unless noted
Procedure, shortened: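 Chicken DT40 Tdp1-/- cells complemented with human TDP1, 400 cells/well, exposed to compounds plus 20 nM camptothecin for at least 48 h at 37 C; viability read as ATP content by CellTiter-Glo luminescence.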
% is scaled to controls: 0 for no effect and ±100 for the full control effect; potency is read from the fitted curve at half-maximal effect; tags tell the direction and shape of the fitted curve.

Row | SMILES | Potency | activity change, negative = growth inhibition
1 | O=c1cc2nc(-c3ccccc3)nc(SCc3cccc(Br)c3)n2[nH]1 | inconclusive [inhibitor, single point] | 
2 | CC(C)CCNC(=O)C1CC(c2ccc(C(F)(F)F)cc2)=NO1 (stereo not given) | inconclusive [inhibitor, partial curve] | 
3 | CCOC(=O)C1CCCN(S(=O)(=O)c2ccc3c4c2CC(=O)N4CC(C)S3)C1 (stereo not given) | inconclusive [inhibitor, single point] | 
4 | Nc1cc(S(=O)(=O)N2CCCCC2)ccc1N1CCCCC1 | inconclusive [inhibitor, single point] | 
5 | Cc1ccc(C(=O)N/C(=C\c2ccc(-c3ccccc3[N+](=O)[O-])o2)C(=O)NCCCN2CCOCC2)cc1 | active: 20.6 µM | 
6 | O=C1/C(=C/c2ccncc2)SC(=S)N1Nc1ccccc1 | inconclusive [inhibitor, single point] | 
7 | COc1ccc2c(c1)nc(-c1cccc(Br)c1)c(=O)n2C(c1ccccn1)c1nc2ccccc2[nH]1 (stereo not given) | inconclusive [inhibitor, single point] | 
8 | CC(C)n1c(SCC(=O)Nc2nncs2)nnc1C1CC1 |  | inactive: 8.96%
9 | CC(C)Oc1ccc(CNC(=O)C2CCN(C(=O)N3CCOc4ccc(Cl)cc43)CC2)cc1 | active: 6.51 µM | 
10 | CSc1ncccc1C(=O)Nc1cc(Cl)ccc1N1CCOCC1 | inconclusive [inhibitor, single point] | 
11 | CC1CC(C)(C)NC2(CCCC2)N1 (stereo not given) |  | inactive: 10.1%
12 | O=C(CNC(=O)c1ccccc1)N/N=C/c1cc(Br)ccc1O | active: 7.31 µM | 
13 | Cc1cccc(N2CCN(S(=O)(=O)c3ccc(F)c(C(=O)Nc4cccc(Cl)c4C)c3)CC2C)c1 (stereo not given) | inconclusive [inhibitor, single point] | 
14 | Cc1ccc(C)c(NC(=S)NCCN2CCOCC2)c1 |  | inactive: -22.2%
15 | Nc1ccccc1NC(=O)NC(=O)c1ccccc1 |  | inconclusive: -30.8% [inhibitor]
16 | Cc1cccc(C(=O)NNC(=O)c2ccc(Cl)cc2)c1O | inconclusive [inhibitor, single point] | 
17 | Cc1sc(NC(=O)CSc2nc(N)n(CC(=O)c3ccccc3)n2)c(C#N)c1C |  | inactive: -2.04%
18 | O=C1CCc2cc(NS(=O)(=O)c3ccc(F)cc3)cc3c2N1CCC3 | inconclusive [inhibitor, single point] | 
19 | Oc1c(C=C2N=c3ccccc3=N2)sc(=S)n1C1CCCC1 |  | inactive: -7.06%
20 | CCCCN(CCCC)C(=O)c1cc2c(=O)n3ccccc3nc2s1 | inconclusive [inhibitor, single point] | 
21 | CCC/C=C/c1ccc(CN2C(C(C)C)C(=O)N(Cc3cn(Cc4ccco4)nn3)CCS2(=O)=O)cc1 (stereo not given) | inconclusive [inhibitor, single point] | 
22 | O=C(CCNC(=O)c1ccc(Br)cc1)Nc1cc(Cl)ccc1-n1cncn1 | inconclusive [inhibitor, single point] | 
23 | Cc1ccc(Cl)cc1N1CCN(C(=O)C(C)n2ncn3cccc3c2=O)CC1 (stereo not given) | active: 18.4 µM | 

Row | SMILES | Potency | activity change, negative = growth inhibition
24 | CCCC1C2CN(C(C)C)CC=C2C(C#N)=C(N)C1(C#N)C#N (stereo not given) | inconclusive [inhibitor, partial curve] | 
25 | c1ccc2c(c1)nc1n2CN(Cc2ccc3c(c2)OCO3)CN1 |  | inactive: -24.8%
26 | O=S(=O)(Nc1ccc(Cl)cc1)c1ccc2c(c1)CCO2 |  | inactive: 1.03%
27 | CN(CCOc1ccccc1)C(=O)C1CCN(C(=O)c2ccc(Cl)cc2)CC1 | inconclusive [inhibitor, partial curve, poor fit] | 
28 | CC(=O)Nc1ccc(NC(=O)C2Cc3c(-c4cccc(C(C)=O)c4)ccnc3O2)cc1 (stereo not given) |  | inactive: 2.45%
29 | CCCCOc1ccc(-c2nnc(-c3cc[n+](C)cc3)o2)cc1 |  | inactive: -17.3%
30 | COc1ccccc1NC(=O)Nc1ccc(-n2ccc(C(F)(F)F)n2)cc1 | inconclusive [inhibitor, single point] | 
31 | COc1ccc(C(=O)Nc2nc3ccccc3s2)c(OC)c1 | inconclusive [inhibitor, single point] | 
32 | C[C@H](CO)N1C[C@H](C)[C@@H](CN(C)C(=O)NC2CCCCC2)Oc2ccc(NC(=O)Nc3ccc(C(F)(F)F)cc3)cc2C1=O | inconclusive [inhibitor, single point] | 
33 | CCOn1c(=O)c(-c2cc(OC)ccc2OC)[n+]([O-])c2ccccc21 |  | inactive: 3.94%
34 | COc1ccc(Nc2ncnc3c2cnn3C)c(OC)c1 |  | inactive: -4.9%
35 | CC(C)c1nc2cccnc2n1C1CCN(C(=O)Cn2cccn2)CC1 |  | inactive: -7.41% [at 9.04 µM]
36 | Cc1ccc(S(=O)(=O)N2CCN(c3c([N+](=O)[O-])cc(C(F)(F)F)cc3[N+](=O)[O-])CC2)cc1 | inconclusive [inhibitor, single point] | 
37 | O=C(CSc1nnc2sc3ccccc3n12)N1CCN(c2ccccc2)CC1 |  | inconclusive: -31.4% [inhibitor]
38 | Cc1ccc(NS(=O)(=O)c2ccc3[nH]c(=O)oc3c2)cc1Cl | inconclusive [inhibitor, single point] | 
39 | COc1ccc(C)cc1N(C(=O)COc1cccc(F)c1)c1nc2ccccc2s1 | inconclusive [inhibitor, single point] | 
40 | COc1cccc(-n2cnc3c(sc4nc(N5CCOCC5)c5c(c43)CCCC5)c2=O)c1 | inconclusive [inhibitor, partial curve] | 
41 | COCCCNC(=O)/C=C/c1c(Cl)cccc1Cl | inconclusive [inhibitor, single point] | 
42 | NC(Cc1ccc(Cl)cc1)c1csc(NC(=O)NCC2CCCCC2)n1 (stereo not given) | active: 10.3 µM | 
43 | Cc1cc(C(=O)N2CCCC(N3CCN(c4cccc(Cl)c4)CC3)C2)n(C)n1 (stereo not given) | inconclusive [inhibitor, single point] | 
44 | CCn1c(N2CCC(Cc3ccccc3)CC2)nc2c1c(=O)[nH]c(=O)n2C | inconclusive [inhibitor, single point] | 
45 | CSc1nsc(SCC(=O)Nc2ccc(O)c(C(=O)O)c2)n1 |  | inactive: -11.1%
